Source: a compilation of properties of binary mixtures (doi:10.1016/j.molliq.2022.121069)
Some of these densities may be calculated back from excess volumes.

Experiment: xn = mol fraction of the nth substance listed
Conditions: 101.3 kPa

CCCC[N+](CCCC)(CCCC)CCCC.[Cl-] + CNCCO
mass density [kg/m3]
Conditions | 293.15 K | 298.15 K | 303.15 K | 308.15 K | 313.15 K | 318.15 K | 323.15 K | 328.15 K | 333.15 K
x1 = 0.091 | – | – | 932.9 | 929.3 | 925.7 | – | 918.6 | 915 | 911.4
x1 = 0.111 | 940.3 | – | 933.3 | 929.9 | 926.4 | 922.9 | 919.4 | – | 912.4
x1 = 0.1441 | 939.6 | 936.2 | – | – | – | 922.5 | 919.1 | 915.6 | 912.2

CC[N+](CC)(CC)CC.[Cl-] + CNCCO
mass density [kg/m3]
Conditions | 293.15 K | 298.15 K | 303.15 K | 308.15 K | 313.15 K | 318.15 K | 323.15 K | 328.15 K | 333.15 K
x1 = 0.0914 | 953.8 | 950.2 | 946.7 | – | 939.5 | 935.9 | 932.3 | – | 923
x1 = 0.1114 | 956 | 952.4 | – | 945.3 | 941.8 | 938.2 | – | 931.1 | 927.6
x1 = 0.1413 | – | 955.5 | 952 | 948.5 | – | – | – | 934.6 | 931.1
